# Paper PMC4336329 (PLoS ONE, 2015)
# Hit rate of the full screen: of about 310,000 compounds, about 14,000 (4.5%) showed an effect of 50% or more. Effects have a minus sign here. This is one part of the list.
# Biological target: human ether-à-go-go-related gene (hERG) potassium channel (human, UniProt Q12809)
# Experiment: primary screen, population patch clamp on CHO cells stably expressing hERG
# 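Further: peak tail current of the secondary pulse compared with the same well before compound.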
# Chain of human ether-à-go-go-related gene (hERG) potassium channel (Q12809 whole entry, looked up): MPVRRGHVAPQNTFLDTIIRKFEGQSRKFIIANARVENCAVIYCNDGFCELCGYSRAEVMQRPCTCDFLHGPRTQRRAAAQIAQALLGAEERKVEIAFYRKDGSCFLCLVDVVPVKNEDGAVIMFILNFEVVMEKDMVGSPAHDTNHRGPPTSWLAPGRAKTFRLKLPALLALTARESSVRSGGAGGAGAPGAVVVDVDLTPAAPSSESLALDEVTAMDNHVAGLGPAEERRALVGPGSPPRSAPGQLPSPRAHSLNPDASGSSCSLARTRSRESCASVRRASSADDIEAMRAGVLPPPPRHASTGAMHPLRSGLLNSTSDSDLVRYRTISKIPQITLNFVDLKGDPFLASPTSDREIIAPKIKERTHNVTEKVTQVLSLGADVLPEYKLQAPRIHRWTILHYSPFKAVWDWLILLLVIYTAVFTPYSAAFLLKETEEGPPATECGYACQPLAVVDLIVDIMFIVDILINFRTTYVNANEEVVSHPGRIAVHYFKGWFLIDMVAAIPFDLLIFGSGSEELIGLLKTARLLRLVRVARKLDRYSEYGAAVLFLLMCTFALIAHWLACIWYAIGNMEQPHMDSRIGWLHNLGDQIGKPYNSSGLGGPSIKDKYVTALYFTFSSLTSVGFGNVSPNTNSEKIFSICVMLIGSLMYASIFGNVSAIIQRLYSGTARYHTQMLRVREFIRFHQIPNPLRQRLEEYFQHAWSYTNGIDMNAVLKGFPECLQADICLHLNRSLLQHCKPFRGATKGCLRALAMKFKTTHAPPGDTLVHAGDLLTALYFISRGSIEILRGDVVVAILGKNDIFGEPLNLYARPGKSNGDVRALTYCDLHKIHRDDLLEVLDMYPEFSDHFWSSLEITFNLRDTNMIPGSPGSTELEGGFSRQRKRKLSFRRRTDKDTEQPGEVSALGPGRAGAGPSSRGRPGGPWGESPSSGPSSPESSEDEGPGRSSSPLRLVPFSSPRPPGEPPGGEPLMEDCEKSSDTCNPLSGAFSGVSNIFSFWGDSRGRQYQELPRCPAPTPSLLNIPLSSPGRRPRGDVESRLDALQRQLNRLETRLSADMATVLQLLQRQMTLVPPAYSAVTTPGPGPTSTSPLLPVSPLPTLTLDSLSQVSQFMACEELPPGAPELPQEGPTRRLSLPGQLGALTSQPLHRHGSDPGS
row,SMILES,"hERG current change (%, negative = inhibition) at 10uM"
1,COc1ccc(C(=O)Nc2cccnc2Cl)cc1OC,11.7%
2,CCCCNC(=O)C1CCCN(S(=O)(=O)CC)C1 (stereo not shown),13.3%
3,O=C(O)CC1S/C(=N/N=C/C=C/c2ccccc2[N+](=O)[O-])NC1=O (stereo not shown),10.5%
4,Cn1cc(SCC(=O)Nc2ccc3c(c2)OCO3)c2ccccc21,-22.4%
5,COc1ccc(S(=O)(=O)N2CCOCC2)cc1NC(=O)CCc1nc2ccccc2c(=O)[nH]1,21.5%
6,O=C(NC(=S)NNC(=O)c1cccs1)c1ccc(Br)o1,26.3%
7,CCc1cccc(NC(=S)N(CCCN2CCOCC2)C(C)c2cc3cccc(OC)c3o2)c1 (stereo not shown),1.95%
8,CCC(C)(C)C1CCC2(CC1)NC(=O)N(CC(=O)NCCc1c[nH]c3ccccc13)C2=O (stereo not shown),-20.3%
9,CN(CC(=O)Nc1ccc(Cl)cc1)Cc1cc(=O)n2ccsc2n1,-33.3%
10,CCn1ncc(/C=N/NS(=O)(=O)c2ccc(Cl)cc2)c1C,-5.88%
11,Cc1ccc(C(OCC(O)CN2CCCCC2)c2ccccc2)cc1 (stereo not shown),-86.6%
12,OCC1(Cc2ccc(F)cc2)CCCN(CCCC(F)(F)F)C1 (stereo not shown),-22.3%
13,COc1ccc(-c2cc3ccccc3oc2=O)cc1NC(=O)c1ccc(Br)o1,-0.342%
14,Cc1cc(C(=O)Nc2ccccc2C)c2ccccc2n1,14.1%
15,CCOC(=O)Cc1cc(=O)[nH]c(/N=C(\N)Nc2ccc(C)c(C)c2)n1,9.07%
16,Cc1c(C(=O)N2CCCC2)c(S(=O)(=O)N2CCCCC2)c(C)n1C,-4.36%
17,C/C(=N\NC(=O)c1ccncc1)c1c(O)n(Cc2ccccc2)c(=O)[nH]c1=O,12.1%
18,O=C(NCc1ccccc1Cl)c1ccncc1,13.7%
19,O=C(CN1C(=O)C2CC=CCC2C1=O)Nc1ccc(Br)cc1 (stereo not shown),-22.7%
20,CC(=O)Nc1ccccc1C(=O)C(=O)Nc1ccc(C(=O)N2CCOCC2)cc1,26.5%
21,C/C(=N/NS(=O)(=O)c1ccccc1)c1ccc(NC(=O)C2CC2)cc1,15.1%
22,COCCn1c(=O)[nH]c2cc(C(=O)NCCN3CCN(c4ccccc4F)CC3)ccc2c1=O,3.51%

row,SMILES,"hERG current change (%, negative = inhibition) at 10uM"
1,CCOc1ccc(/C=N/n2c(SC)nnc(C(C)(C)C)c2=O)cc1,9.52%
2,CC(C)C1CC(O)(C2(O)CCCCC2)ON1 (stereo not shown),0.709%
3,CCS(=O)(=O)N1CCN(c2ccc(S(=O)(=O)N3CCOCC3)cc2)CC1,-12.8%
4,Nc1ncnc(Oc2cccc3cccnc23)c1[N+](=O)[O-],25.4%
5,Cc1ccc(-n2c(=O)cc(N3CC(C)CC(C)C3)[nH]c2=O)cc1 (stereo not shown),23.7%
6,COc1ccc(C2CC(c3ccccc3)=NN2C(=O)CCCC(=O)O)cc1 (stereo not shown),22.1%
7,C/C(CC(=O)Nc1ccccc1-c1ccccc1)=N\NC(=O)COc1ccc(C)cc1Br,-15.7%
8,COc1ccc(/C=C/C(=O)C2C(=O)C=C(C)OC2=O)cc1O (stereo not shown),-4.44%
9,CCc1nnc(NC(=O)c2cnccn2)s1,9.16%
10,COc1ccc(-n2c(SCC(=O)NC3CC3)nc3ccccc3c2=O)cc1OC,2.79%
11,CN(Cc1nc(-c2ccc(Cl)cc2)no1)C(=O)CCN1C(=O)[C@H]2CC=CC[C@H]2C1=O,-21.9%
12,Cc1ccc(SCC(=O)N2N=CCC2c2ccccc2)cc1 (stereo not shown),-2.28%
13,COc1cccc2sc(Nc3nnc(-c4ccccc4Cl)o3)nc12,-4.23%
14,S=C1CN=C(c2ccccc2)c2cc(Cl)ccc2N1,5.81%
15,CCOC(=O)CSc1nnc([C@H](Cc2ccccc2)NC(=O)OC(C)(C)C)o1,-14.3%
16,Cc1ccc(C(=O)OCC(=O)Nc2ccc(Cl)cn2)s1,7.17%
17,CCn1c(Sc2ccc([N+](=O)[O-])cn2)nnc1-c1ccco1,-66.5%
18,COc1ccc(N2C(=O)CNC2=S)cc1,-2.5%
19,C=CCc1ccc(OCCCCNC2CCCC2)c(OC)c1.O=C(O)C(=O)O,-39.9%
20,Oc1c(Br)cc(/C=N/NC(=S)NCC2CCCO2)cc1Br (stereo not shown),18.7%
21,Cc1ccc(OCc2n[nH]c(=S)n2N)cc1C,33.9%
22,Cc1ccc2c(CC(=O)NCCc3ccc(S(N)(=O)=O)cc3)coc2c1,-2.43%

row,SMILES,"hERG current change (%, negative = inhibition) at 10uM"
1,Cc1ccc(C)c(NS(=O)(=O)c2ccc(OCC(=O)NCc3ccccn3)cc2)c1,-7.14%
2,C#CCOCCOCCOCCNc1nc(N2CCN(C(=O)C([C@@H](C)CC)n3cc(C(N)Cc4ccc(O)cc4)nn3)CC2)nc(N2CCN(C(=O)[C@H](CCC(=O)O)n3cc(C(N)CO)nn3)CC2)n1.Cl (stereo partly shown),5.61%
3,NNc1nnnc2c1sc1nc(N3CCOCC3)c3c(c12)CCCC3,5.3%
4,CC1CC(C)CN(S(=O)(=O)CC23CCC(CC2=O)C3(C)C)C1 (stereo not shown),-0.236%
5,CCOCCCNC(=O)c1oc2ccc(S(=O)(=O)N3CCOCC3)cc2c1C,17.9%
6,CC1CN(C(=O)c2ccccc2C(=O)c2ncc[nH]2)CC(C)O1 (stereo not shown),9.31%
7,O=C(c1c[nH]c(C(=O)C(Cl)(Cl)Cl)c1)c1ccc(F)cc1F,-12.3%
8,COc1ccc(C2=NN(CCC(=O)NC3CCCCCC3)C(=O)CC2)cc1,-15.1%
9,Cl.NC(CC(=O)OC1CCCCC1)C(=O)OC1CCCCC1 (stereo not shown),-0.88%
10,Cc1nn(C)c(C)c1S(=O)(=O)N(CC(=O)NCCN1CCOCC1)c1ccc(C(C)C)cc1,-2.41%
11,COc1ccccc1CNC(=O)C1(C)Oc2cccnc2NC1=O (stereo not shown),9.69%
12,O=c1c2ccccc2c(-c2ccccc2)nn1-c1ccc(Cl)c(Cl)c1,13.3%
13,Cc1cc(C)c(S(=O)(=O)NCC2CCC(C(=O)NCc3ccc4c(c3)OCO4)CC2)c(C)c1 (stereo not shown),-1.15%
14,O=C(/C=C/c1ccc(Cl)cc1)NC(=S)N1C[C@H]2C[C@H](C1)c1cccc(=O)n1C2,-53.1%
15,COc1ccccc1CNC(=O)C1CCC(CNc2c(N3CCCCC3)c(=O)c2=O)CC1 (stereo not shown),7.49%
16,COc1ccc(C(c2nnnn2C2CCCC2)N2CCC(C)CC2)c(OC)c1 (stereo not shown),-18.7%
17,CCOc1ccc(S(=O)(=O)NCc2ccc(OC)cc2)c2cccnc12,-19.6%
18,CCn1c(SCC(=O)NC(=O)Nc2ccc3c(c2)OCCO3)nnc1-c1cccs1,-5.31%
19,COc1ccc(NC(=O)CSc2nnc(N)s2)c([N+](=O)[O-])c1,5.58%
20,COc1ccc(CN2CC(=O)N(c3ccccc3C)C2=S)cc1OC,20%
21,Cc1ccc(S(=O)(=O)N(C)C(=O)NC(=O)NS(=O)(=O)c2ccccc2)cc1,12.7%
22,Cc1cccc(NCC(=O)N/N=C\c2ccccn2)c1,2.54%

row,SMILES,"hERG current change (%, negative = inhibition) at 10uM"
1,Cc1cc(OCC(=O)Nc2ccccc2N2CCCC2)ccc1C(C)C,10.9%
2,CSCC(=O)N1CCCC(CO)(Cc2ccccc2C)C1 (stereo not shown),-4.55%
3,S=C1N(c2ccccc2)C(c2cccc3ccccc23)N2CCCN12 (stereo not shown),-5.18%
4,O=C(C1COc2ccccc2O1)N1CCN(c2ccccn2)CC1 (stereo not shown),-26.7%
5,COc1cccc(/C=N/NC(=O)c2c(C)nc3ccc(Br)cn23)c1O,4.54%
6,CC1=C(C)C(C)=C(C#N)C(=C(C#N)C#N)N1,4.18%
7,CC(=O)Nc1ccc(C(=O)CSc2nccc(=O)[nH]2)cc1,22.2%
8,COc1ccc(S(=O)(=O)Nc2ccc(N(C)C(C)=O)cc2)cc1,16.4%
9,CCN(CC)CCNC(=O)C12CC3CC(C)(CC(C)(C3)C1)C2.Cl,-7.72%
10,COCC(C)n1c(C)cc(C(=O)COC(=O)c2n[nH]c3ccccc23)c1C (stereo not shown),-0.626%
11,Cc1ccc2ncccc2c1NS(=O)(=O)c1ccccc1,13.5%
12,O=C(NCc1ccc(N2CCCC2=O)cc1)C1CCC(=O)N(Cc2ccccc2F)C1 (stereo not shown),-3.3%
13,C/C=C\C=C/C(=O)Nc1cccc(C2=NOC3(C2)C[C@H](C(N)=O)N(C(=O)CC)C3)c1 (stereo partly shown),-8.64%
14,CC(C)CC(OC(=O)c1nsc(Cl)c1Cl)C(=O)NCC1CCCO1 (stereo not shown),18.8%
15,COc1cccc(CNC(=O)[C@@H](C)N2C(=O)N3CCc4c([nH]c5ccc(OC)cc45)C3(C)C2=O)c1 (stereo partly shown),9.17%
16,CC(=O)Nc1cccc(-c2cnc3ccccc3n2)c1,-9.95%
17,COc1cccc(CNn2cnnc2)c1OCc1ccccc1F,6.85%
18,CCCNC(=O)c1ccc(CN2CCc3ccccc3C2)cc1,-37.3%
19,CCc1ccc(NC(=O)COc2coc(CN3CCN(c4ccccc4)CC3)cc2=O)cc1,12.3%
20,COc1ccc(C(CCN)Cc2ccccc2)cc1 (stereo not shown),-1.36%
21,Cc1cccc2c1CC(C)(C)NC2=C(C#N)C#N,14.3%
22,Cc1ccc(OCCC(=O)OCc2csc(CC(=O)Nc3ccccc3C)n2)cc1,8.22%
